Experimental findings from the antibiotic and cytotoxicity screens of Wong et al. (2023) are described below.

The other results are listed elsewhere or left out.

The test deals with HSkMC (human skeletal muscle cells). Briefly: cytotoxicity call (relative viability < 0.9). The following applies: 10 µM.
For the molecule `CO[C@H]1O[C@H](CO)[C@@H](OC(=O)c2ccc(Br)cc2)[C@@H]2OC(=O)[C@H](Cc3cccc(Br)c3)C/C=C/C[C@@H](Cc3cccc(Br)c3)C(=O)O[C@@H]12`, the cytotoxicity call is “inactive”.

On to `CCOC(=O)c1c(C)cc(OC)cc1O`, for which the cytotoxicity call is “inactive”.

Consider `COc1cccc(OC)c1C(=O)O[C@H]1[C@@H]2OC(=O)[C@H](Cc3cccc(Br)c3)C/C=C/C[C@@H](Cc3cccc(Br)c3)C(=O)O[C@H]2[C@@H](OC)O[C@@H]1CO`, for which the cytotoxicity call was “inactive”.

On to `C[C@H]1CN([C@@H](C)CO)C(=O)c2cccc(NS(=O)(=O)c3ccccc3)c2O[C@@H]1CN(C)S(=O)(=O)c1cccs1`, for which the cytotoxicity call is “inactive”.

`C[C@@H]1CCCCO[C@H](CN(C)C(=O)c2ccccc2)[C@H](C)CN([C@@H](C)CO)C(=O)c2cc(NC(=O)NC3CCCCC3)ccc2O1`: the cytotoxicity call was “inactive”.

Turning to `C[C@@H]1O[C@@H](O[C@H]2[C@H](OC(=O)[C@]34CCC(C)(C)C[C@H]3C3=CC[C@H]5[C@@]6(C)CC[C@H](O[C@@H]7O[C@H](CO)[C@@H](O)[C@H](O)[C@H]7O)C(C)(C)[C@@H]6CC[C@@]5(C)[C@]3(C)C[C@H]4O)OC[C@H](O)[C@@H]2O)[C@H](O)[C@H](O[C@@H]2OC[C@H](O)[C@H](O)[C@H]2O)[C@H]1O[C@@H]1OC[C@@H](O)[C@H](O[C@@H]2OC[C@H](O)[C@H](O)[C@H]2O)[C@H]1O`, the cytotoxicity call was “inactive”.

For `COc1ccc2c3c(n(c2c1)C)[C@H](CO)N(C[C@]13CCN(CC1)CC1CCOCC1)C(=O)Cc1ccccn1`, the cytotoxicity call was “inactive”.

As for `C[C@@H]1CCCCO[C@@H](CN(C)Cc2ccc(C(F)(F)F)cc2)[C@@H](C)CN([C@@H](C)CO)C(=O)c2cc(NS(=O)(=O)c3ccccc3)ccc2O1`, the cytotoxicity call is “inactive”.

Consider `CCOC(=O)CCCCCC(=O)Nc1ccc2c(c1)C(=O)N([C@H](C)CO)C[C@@H](C)[C@@H](CN(C)S(=O)(=O)c1ccc(C)cc1)OCCCC[C@H](C)O2`, for which the cytotoxicity call is “inactive”.

As to `CCCCCC1C(=O)CCC1CC(=O)OC` (stereo not given), the cytotoxicity call was “inactive”.

In the case of `O=C(C[C@H]1CC[C@@H]2[C@H](COC[C@@H](O)CN2C(=O)Nc2cccc(F)c2)O1)NCCCN1CCOCC1`, the cytotoxicity call is “inactive”.

For the molecule `C[C@@H]1CN([C@@H](C)CO)C(=O)c2cc(NC(=O)Nc3cccc4ccccc34)ccc2O[C@@H]1CN(C)Cc1ccc(Cl)c(Cl)c1`, the cytotoxicity call was “inactive”.

On to `C[C@@H]1CN([C@@H](C)CO)C(=O)c2cccc(NS(=O)(=O)c3cn(C)cn3)c2O[C@@H]1CN(C)S(=O)(=O)c1ccccc1`, for which the cytotoxicity call is “inactive”.

As for `C[C@H](CO)N1C[C@H](C)[C@H](CN(C)C(=O)Nc2ccc(F)cc2)Oc2ccc(NC(=O)CCCN(C)C)cc2C1=O`, the cytotoxicity call is “inactive”.

Turning to `C[C@H]1CN([C@@H](C)CO)C(=O)CCCn2nncc2CO[C@@H]1CN(C)C(=O)Nc1cccc(C(F)(F)F)c1`, the cytotoxicity call is “inactive”.

Turning to `C[C@@H]1CCCCO[C@@H](CN(C)C(=O)c2ccncc2)[C@H](C)CN([C@@H](C)CO)C(=O)c2cc(NS(=O)(=O)c3cn(C)cn3)ccc2O1`, the cytotoxicity call was “inactive”.

For `O=C(CN1CCS(=O)(=O)CC1)NS(=O)(=O)c1ccccc1`, the cytotoxicity call is “inactive”.

Turning to `C[C@@H]1CCCCO[C@H](CN(C)Cc2ccncc2)[C@H](C)CN([C@@H](C)CO)C(=O)c2cc(NC(=O)Nc3ccc(C(F)(F)F)cc3)ccc2O1`, the cytotoxicity call is “inactive”.

Regarding `COC(=O)[C@@]12OC[C@]34[C@H]([C@@H](O)[C@@H]1O)[C@@]1(C)CC(=O)C(=O)[C@H](C)[C@@H]1C[C@H]3OC(=O)[C@H](OC(=O)/C=C(\C)C(C)C)[C@@H]24`, the cytotoxicity call is “active”.

For the molecule `O=C(C[C@H]1CC[C@@H](NC(=O)c2cccnc2)[C@H](CO)O1)NCCN1CCCCC1`, the cytotoxicity call was “inactive”.

As for `Cc1noc(C)c1NC(=O)Nc1ccc2c(c1)C(=O)N([C@H](C)CO)C[C@@H](C)[C@H](CN(C)Cc1ccc(-c3ccccc3)cc1)O2`, the cytotoxicity call was “inactive”.

As for `N[C@H]1CC[C@H](CCn2cc(-c3ccccn3)nn2)O[C@@H]1CO`, the cytotoxicity call is “inactive”.

Take `Nc1nc(=O)c2c(CCc3ccc(C(=O)NC(CCC(=O)[O-])C(=O)[O-])cc3)c[nH]c2[nH]1.[Na+].[Na+]` (stereo not given): the cytotoxicity call was “inactive”.

`Cn1c(=O)c2c(ncn2CCCCn2cnc3c2c(=O)n(C)c(=O)n3C)n(C)c1=O`: the cytotoxicity call was “inactive”.

In the case of `C[C@H]1CN([C@@H](C)CO)S(=O)(=O)c2ccc(C3=CCCCC3)cc2O[C@H]1CN(C)Cc1cncnc1`, the cytotoxicity call is “inactive”.

`Cc1cc(C(=O)Nc2cccc3c2O[C@H](CN(C)S(=O)(=O)c2cn(C)cn2)[C@@H](C)CN([C@@H](C)CO)C3=O)n(C)n1`: the cytotoxicity call is “inactive”.

For the molecule `C[C@@H]1CCCCO[C@H](CN(C)S(=O)(=O)c2ccc(Cl)cc2)[C@H](C)CN([C@H](C)CO)C(=O)c2cc(NC(=O)NC3CCCCC3)ccc2O1`, the cytotoxicity call is “inactive”.

Regarding `Cc1noc(C)c1NC(=O)N(C)C[C@@H]1Oc2c(NC(=O)Nc3ccc(C(F)(F)F)cc3)cccc2C(=O)N([C@H](C)CO)C[C@@H]1C`, the cytotoxicity call is “inactive”.

In the case of `C[C@H]1CN([C@@H](C)CO)C(=O)c2cc(NC(=O)Nc3cccc4ccccc34)ccc2O[C@@H]1CN(C)C(=O)Nc1ccc(F)cc1`, the cytotoxicity call was “inactive”.

Regarding `C[C@@H]1CN([C@@H](C)CO)C(=O)Cc2cc(NS(=O)(=O)c3cn(C)cn3)ccc2O[C@@H]1CN(C)C(=O)Nc1ccc2c(c1)OCO2`, the cytotoxicity call was “inactive”.

For `Cn1cnc(CCNC(=O)C[C@@H]2CC[C@H]3[C@@H](COC[C@@H](O)CN3C(=O)C3CC3)O2)c1`, the cytotoxicity call was “inactive”.

Consider `CC(C)NC(=O)N(C)C[C@H]1Oc2ccc(NC(=O)Cc3ccccc3)cc2C(=O)N([C@@H](C)CO)C[C@@H]1C`, for which the cytotoxicity call is “inactive”.

`CC(C)NC(=O)N(C)C[C@@H]1Oc2ccc(NS(=O)(=O)c3ccccc3)cc2CC(=O)N([C@H](C)CO)C[C@H]1C`: the cytotoxicity call was “inactive”.

Take `COc1ccc(S(=O)(=O)N(C)C[C@H]2Oc3c(NS(=O)(=O)c4cccs4)cccc3C(=O)N([C@H](C)CO)C[C@@H]2C)cc1`: the cytotoxicity call is “inactive”.

`CN(C)CCN1C[C@@H]2CN(C(=O)[C@H]3CCOC3)C[C@H]2C1=O`: the cytotoxicity call is “inactive”.

With `COc1ccc(-c2cnc3c(c2)C(=O)N([C@H](C)CO)C[C@H](C)[C@H](CN(C)S(=O)(=O)c2cn(C)cn2)O3)cc1`, the cytotoxicity call was “inactive”.

On to `NC[C@H](c1ccccc1)N1CCOCC1`, for which the cytotoxicity call was “inactive”.

With `C[C@@H]1CN([C@@H](C)CO)S(=O)(=O)c2ccc(C#CC3(O)CCCC3)cc2O[C@@H]1CN(C)C(=O)Cc1cccnc1`, the cytotoxicity call is “inactive”.

As to `C[C@H]1CN([C@@H](C)CO)C(=O)c2cccc(NS(C)(=O)=O)c2O[C@H]1CN(C)C(=O)Nc1ccc(F)cc1`, the cytotoxicity call is “inactive”.

On to `C[C@@H]1CCCCO[C@@H](CN(C)Cc2ccc(C(=O)O)cc2)[C@H](C)CN([C@@H](C)CO)C(=O)c2cc(NC(=O)NC3CCCCC3)ccc2O1`, for which the cytotoxicity call is “inactive”.
